± gives the standard deviation of the averaged measurements. The list shows a part of the results.

This assay relates to PfAP2-I AP2 domain 3 (GST-tagged). In words: gcPBM binding intensity (ln(normalized median fluorescence intensity)); higher = stronger DNA binding. In short, it runs like this:
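In this array assay, P. falciparum DNA-binding domains with a GST tag, expressed in E. coli, were applied for 1 h to primer-extended double-stranded 36-bp intergenic genomic probes and negative controls on an Agilent 4 × 180k array. Bound protein was visualised with Alexa488 anti-GST antibody at 488 nm. Binding intensity is the highest Masliner-normalised natural-log median intensity across replicate spots of either probe orientation.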
“TGTAGTTTGTCCCATGCATGTTCCATTAAAATATAT [TGCATGCA_site854]”: the “gcPBM binding intensity (ln)” value was found to be 8.44 ± 0.67.

Take “AATGTATATATGTAATGTACATATATAATGTATATA [XGTACX_site6510]”: the “gcPBM binding intensity (ln)” value is 7.72 ± 0.15.

Take “AACTAAACAAAAGTTACACACATCATACGATATTAT [CACACA_site3180]”: the “gcPBM binding intensity (ln)” value came to 7.54 ± 0.64.

Take “ATAATTTATATTCAGAAACACACGAAAAAAAAAAAT [CACACA_site1296]”: the “gcPBM binding intensity (ln)” value worked out at 7.93 ± 0.45.

Consider “ATGTTAAGAATAATTAGTACTTACATATGTATAATA [XGTACX_site4419]”, for which the “gcPBM binding intensity (ln)” value is 7.7 ± 0.53.

On to “ACCATATAATTTTTTTGTACATAATGATTTTTTTTT [XGTACX_site1104]”, for which the “gcPBM binding intensity (ln)” value is 7.99 ± 0.45.

As to “TATATTATATACGTCTGTACACAAATGAGAGGTAAA [XGTACX_site5538]”, the “gcPBM binding intensity (ln)” value worked out at 8.12 ± 0.42.

In the case of “AAAAAATAATAATAAAATGAATAGATATGTATTTAT [TGCATGCA_negctrl_site210]”, the “gcPBM binding intensity (ln)” value is 7.45 ± 0.74.

In the case of “AATAATATATATTGTACACACAAAATGGGAAAAAAA [CACACA_site5100]”, the “gcPBM binding intensity (ln)” value amounted to 8.21 ± 0.61.

In the case of “TTATAAAAAAAAAAAAAAAATATATATATATATATA [XGTACX_negctrl_site592]”, the “gcPBM binding intensity (ln)” value came to 9.29 ± 0.49.

As for “ACAAAATGTAAATAAACACACATATATATATATATA [CACACA_site1281]”, the “gcPBM binding intensity (ln)” value is 9.4 ± 0.51.

In the case of “AGCAGAGTTACAATTTGTACGTAATTGATATAGATA [XGTACX_site4051]”, the “gcPBM binding intensity (ln)” value is 7.88 ± 0.5.

Turning to “AACATATTATCTTGTGAAAATAATATAAGTCACATT [TGCATGCA_negctrl_site339]”, the “gcPBM binding intensity (ln)” value stood at 7.38 ± 0.63.

Turning to “ATATATATATATATTTGTACAGAAAATATTTTAATA [XGTACX_site3706]”, the “gcPBM binding intensity (ln)” value is 9.09 ± 0.73.

As for “AAAAAATAATTGAAGTGTACGTACAATGATTTTACT [XGTACX_site7663]”, the “gcPBM binding intensity (ln)” value worked out at 8 ± 0.57.

“GTATTCTACAGACACATACACACATATATATATATA [CACACA_site3427]”: the “gcPBM binding intensity (ln)” value came to 9.42 ± 0.54.

For the sequence “AAGAAAAACTTTACGTGTACCAAACATCCTGCCGAC [XGTACX_site4895]”, the “gcPBM binding intensity (ln)” value turned out to be 7.79 ± 0.73.

In the case of “TAAACCTTAAAATATTTCTCATGTTTAACTTATATT [GTGCAC_negctrl_site233]”, the “gcPBM binding intensity (ln)” value worked out at 7.58 ± 0.59.

In the case of “TTATAATATTGTGGTATACACACCTTACAAAAAGGT [CACACA_site2878]”, the “gcPBM binding intensity (ln)” value was found to be 7.96 ± 0.67.

Take “GGGAGAAATTTATACATACACACATATATATATTAT [CACACA_site4039]”: the “gcPBM binding intensity (ln)” value was 7.81 ± 0.48.

With “TACAATGTGGATAATTGTACAAAACCGATAAGAGGG [XGTACX_site6453]”, the “gcPBM binding intensity (ln)” value came out at 8.53 ± 0.52.

With “TTATATACCCTAATATGTTTTATTATTATTATATAT [TGCATGCA_negctrl_site6]”, the “gcPBM binding intensity (ln)” value worked out at 7.7 ± 0.63.

On to “TATATTCTACAAGAATTATGAATTGTCAGACCAAAT [CACACA_negctrl_site1101]”, for which the “gcPBM binding intensity (ln)” value came out at 7.45 ± 0.66.

For “TTTATTTTCATATGAACACACATATATATATTATAA [CACACA_site2369]”, the “gcPBM binding intensity (ln)” value came out at 8.22 ± 0.31.

As to TGTTCTGAACGGTTCATGCACTTTTTTTTGTTAATT, the “gcPBM binding intensity (ln)” value came out at 8.82 ± 0.42.

For the sequence “CTGTTTTTGTTTTAAAGTACATTGTTCAATATACAT [XGTACX_site5288]”, the “gcPBM binding intensity (ln)” value is 8.15 ± 0.22.

With “ATATAAATAATATAAATACACACTAAAAAAAATATA [CACACA_site542]”, the “gcPBM binding intensity (ln)” value stood at 7.71 ± 0.56.

As to “AGGGAATAATATTAATGTACATATATGAACTTGTTT [XGTACX_site6089]”, the “gcPBM binding intensity (ln)” value was found to be 7.82 ± 0.57.

As for “TATAAAAAGGAAAAATAAAAATAAAAATAAAAATTA [CACACA_negctrl_site1822]”, the “gcPBM binding intensity (ln)” value was 7.22 ± 0.7.

With TCTTTTAAAAATTAAGTGCATGTCCTTATAACAAAA, the “gcPBM binding intensity (ln)” value came to 8.43 ± 0.32.

Regarding “AAAAAAATAATGTACACACACATATCTGTTTATATA [CACACA_site4270]”, the “gcPBM binding intensity (ln)” value was 7.88 ± 0.46.

For the sequence “ATATTTATATATATATGTACATATGTGTGTTTTTAT [XGTACX_site3956]”, the “gcPBM binding intensity (ln)” value was 7.82 ± 0.35.

For “TCATAAACATTATGCACACAAAAATAAAAAAAAATA [CACACA_site1115]”, the “gcPBM binding intensity (ln)” value was 9.8 ± 0.56.

Consider “ATATATAACTTTTCTTAACACACAAAAAACAAAAAT [CACACA_site8748]”, for which the “gcPBM binding intensity (ln)” value is 8.09 ± 0.59.

For “ATAAAATATATATGCACACACATATATATTTCATAC [CACACA_site3547]”, the “gcPBM binding intensity (ln)” value was 9.5 ± 0.14.

As for “ACATAAAATAAATATACACACATATGTATATATTAT [CACACA_site3041]”, the “gcPBM binding intensity (ln)” value was 7.69 ± 0.33.

As to “AAAAGAATTTAGAAGGCATGCACTTAAACATGGATA [TGCATGCA_site699]”, the “gcPBM binding intensity (ln)” value is 8.01 ± 0.65.

Regarding “ATATATATATATATGTGTACTTATAAATATATCTGT [XGTACX_site4337]”, the “gcPBM binding intensity (ln)” value was 9.32 ± 0.42.

Take “AATATTTAAAACAAATCACACATGTATCCATAAATG [CACACA_site5308]”: the “gcPBM binding intensity (ln)” value amounted to 7.5 ± 0.65.

For the sequence “ATATCCCATATGTAATGTACTTACACTTTCTTAATT [XGTACX_site7020]”, the “gcPBM binding intensity (ln)” value is 7.98 ± 0.83.

Regarding “TAAATATTTTATTGTACACACTTTTTATGAATGATG [CACACA_site5694]”, the “gcPBM binding intensity (ln)” value was determined as 8.12 ± 0.29.

Regarding “TGCTTATCCATTTCTACACACAAAAAAAAAAAAAAA [CACACA_site37]”, the “gcPBM binding intensity (ln)” value was 8.11 ± 0.47.

As for “AAATGGGTTTATTTAACACACAAAAGAAAAAATATA [CACACA_site1938]”, the “gcPBM binding intensity (ln)” value was found to be 7.82 ± 0.63.

In the case of “TATATATATTTATGTTGTACAAAATATTATTACGTA [XGTACX_site5384]”, the “gcPBM binding intensity (ln)” value was 7.91 ± 0.48.

“TTATATTATAACAAACGTACGAATTTTATACAAATA [XGTACX_site7258]”: the “gcPBM binding intensity (ln)” value came to 7.7 ± 0.42.

(Values after the supplement of paper PMC11417369.)
